Our source for the stoichiometry N values is publication PMC7511233.

Test in all cases: SEC; SEC analysis of purified properdin preparations prior to use (24 ml Superdex 200 increase, 20 mM HEPES/150 mM NaCl, pH 7.5, named for the purification)
Common to all, as to conditions: remark: other sources report otherwise

Assay [1] deals with T1, purified serum properdin (human), P27918.
T1 chain: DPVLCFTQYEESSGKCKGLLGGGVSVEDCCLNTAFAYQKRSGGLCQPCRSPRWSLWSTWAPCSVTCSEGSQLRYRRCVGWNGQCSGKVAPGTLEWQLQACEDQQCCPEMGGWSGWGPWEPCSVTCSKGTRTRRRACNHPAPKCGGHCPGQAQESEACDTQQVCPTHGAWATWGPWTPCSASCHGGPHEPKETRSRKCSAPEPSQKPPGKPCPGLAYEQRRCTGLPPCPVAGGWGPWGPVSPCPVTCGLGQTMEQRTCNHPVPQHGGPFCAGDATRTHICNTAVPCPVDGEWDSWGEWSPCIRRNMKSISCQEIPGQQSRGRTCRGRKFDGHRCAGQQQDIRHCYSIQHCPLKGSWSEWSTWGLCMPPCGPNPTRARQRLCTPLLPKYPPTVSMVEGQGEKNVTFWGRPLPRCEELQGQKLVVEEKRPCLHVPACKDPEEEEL

Assay [2] deals with T2, recombinant wild type properdin, dimer and trimer fraction (human), P27918.
T2 chain: T1 chain

The target of assay [3] is T3, recombinant wild type properdin, tetramer fraction (human), P27918.
T3 chain: T1 chain

Values joined by “and” are separate entries in the source; they are usually repeats but may differ in a detail not shown here. Identical values can stand only once.

B1: purified serum properdin, P27918 28-469 (natural protein)
chain: T1 chain
Take B1: the stoichiometry N – broadly, a count of units in the complex or per binding partner – in assay [1] is 2 and 3 and 4.

B2: recombinant wild type properdin, dimer and trimer fraction, P27918 28-469 (natural protein)
chain: T1 chain
Regarding B2, the stoichiometry N in assay [2] was 2 and 3.

B3: recombinant wild type properdin, tetramer fraction, P27918 28-469 (natural protein)
chain: T1 chain
On to B3, for which the stoichiometry N in assay [3] came out at 4.
